Results: the supplement of paper PMC3334620
Over roughly 33,000 sequences, “E-score (-0.5 to 0.5)” has its median near -0.017; the highest 2% begin near 0.3. The list shows a part of the results.

Each sequence was assayed against T1, Sut1 (UniProt P53032) (assay: PBM E-score (8-mer binding enrichment) (E-score (-0.5 to 0.5)); higher = stronger / more preferred TF binding; most listed sequences are background and not binding sites). Conditions: protein concentration: 200 nM; construct: GST-full length.
T1 sequence: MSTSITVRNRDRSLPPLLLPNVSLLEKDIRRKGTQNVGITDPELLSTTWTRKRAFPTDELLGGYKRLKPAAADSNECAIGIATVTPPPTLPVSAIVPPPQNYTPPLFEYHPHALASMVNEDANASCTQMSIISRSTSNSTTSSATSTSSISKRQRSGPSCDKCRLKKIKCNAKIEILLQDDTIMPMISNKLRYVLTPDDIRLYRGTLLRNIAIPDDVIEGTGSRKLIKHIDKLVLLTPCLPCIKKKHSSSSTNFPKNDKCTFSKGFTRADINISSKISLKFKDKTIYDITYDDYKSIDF
How it was run: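 The E-score, a modified Wilcoxon-Mann-Whitney statistic, was computed by the Universal PBM Analysis Suite for every ungapped eight-base word pooled with its reverse complement. Scans behind it were normalised with masliner after bound GST-tagged yeast transcription factors were detected with fluorescent anti-GST. The proteins, at about 100-200 nM, had been applied to universal all-10-mer Agilent arrays made double-stranded by primer extension.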

Sequence	PBM E-score
CTCTCGTC	-0.149
ACGTTATA	0.17
AGTGCACC	-0.0859
ACACACAG	-0.0805
CATGCGGA	0.0328
CCAGGATA	-0.0911
ACAACGGC	-0.139
GTCTACTA	0.0751
CGCACCCA	-0.196
CAGCACGC	-0.138
ATGATGAG	0.0508
AGTGCATC	-0.0383
ACAACCCA	0.11
GTAGTTGA	0.0996
CGTCGACG	-0.202
AAGGCGGA	0.159
AAGGGAGG	-0.172
CATCTTAA	0.0959
GCACCTCA	0.054
AAATGACG	0.135
CTCAACGC	-0.31
AACCTGAG	-0.148
CGAGGTAG	-0.239
CGCTTCAG	0.0152
GAAAGAGC	-0.0889

Sequence	PBM E-score
CCCAAACG	-0.212
CCCACGGC	-0.266
ATGCACGG	-0.114
GCAGGCCA	-0.209
AGGGTCTA	-0.0968
GAATATGA	0.0941
ACATGAGG	-0.281
ACCGTTGG	-0.175
CATTAGTC	0.0587
CTTTTACA	0.141
ACGGGGTC	0.0521
ATTCAGCC	-0.123
ATCCCACA	-0.101
GGTGTAAC	0.0484
CGAAAGAC	0.26
ACGGCGCA	-0.0471
TGAGTGAA	-0.0239
GATGTCCA	0.00169
GAGATACC	0.0113
CAAGGAAG	-0.0615
ATCCCTTG	-0.235
GTAGGGCA	-0.136
CACCTCAC	0.0572
AGGCAGCG	-0.171
ATCAGAAG	0.0238

Sequence	PBM E-score
GCCGGACC	0.198
CTTGTATC	0.0674
GTGAAAGA	0.131
TACCGCGA	-0.0297
AGTAGTTG	0.114
CTGACCTC	-0.121
AAATCGTG	0.166
AAAAAACG	0.258
CTATCGCC	-0.0559
AAGCAACT	0.0884
GGAATTTA	0.085
CGGTGATA	0.0301
AACCTCCC	-0.165
CGCTAATC	-0.147
CCGTTAGC	-0.0378
CAGATTCC	-0.0513
CTGATGAC	-0.064
ACCAATCT	-0.0113
GCGGATGA	0.14
CATGAGAG	-0.029
ACCCTCGC	-0.285
ATACAATA	0.299
GTGGATCA	-0.172
ACACCTCC	-0.165
AGGCGTTG	-0.0499

Sequence	PBM E-score
AACCCGTC	-0.294
GCAGTAAC	-0.144
GTCGCCGA	-0.183
ATACTCTA	0.138
GAGACACA	-0.0324
AAAAACTA	0.273
ACTTCAAC	0.0443
AGAACCGC	0.0888
AGACACTC	0.0339
CGTGTGGA	-0.214
TACCGCTA	-0.217
TAGCCGAA	0.0372
CTTAGTCC	0.113
TCACTAGA	0.054
CAGTAATG	0.00981
ACACCCAC	-0.037
CCTCGGCC	0.0111
CGTTATAC	-0.062
AGTAACTA	0.0542
CAAATAAG	-0.0767
CATTCAAC	0.0914
ATTAGATG	0.303
TTAAAGAA	0.203
CATCCGGC	0.0355
TAAGGGAA	-0.116

Sequence	PBM E-score
ACCATGAA	0.099
ACCAAACT	-0.0181
GTGGTCCA	-0.141
GTGCATAA	0.0529
ATGCCAGA	-0.126
CGGGCGCC	-0.17
GCTTCCAC	-0.0573
AGTTGGCC	-0.0795
GCCCAAGA	-0.171
AAGATCCT	0.089
AATTGAGG	-0.0114
ATATATCA	0.105
ACCGCCTC	-0.244
CTATTCAG	0.0165
ACAGATCT	0.0682
AAGGTCGC	0.041
ACGGGACA	-0.188
CAGATTTA	0.189
AAGGCAAC	-0.0594
AATCACCC	0.0421
GCTGTAAC	0.0343
AGAGGGGC	-0.22
AAAGATAC	0.118
GCTAGTCA	-0.115
AGCGACTC	-0.0899

Sequence	PBM E-score
GTGGTGTA	0.0594
AATAAATA	0.374
GGTGAAAA	0.128
CGCAGAGA	-0.137
TGAGTTAA	-0.00085
AATAAAGG	-0.0466
AGCTCCTG	-0.238
AGAAGCCG	-0.0155
AGGGCACC	-0.273
CCCAAGAG	-0.275
GATCTCCC	-0.249
ATGCAGTC	-0.153
ACAACAAT	0.139
AGCTATTC	-0.0453
ACTTGGCT	-0.0968
CACCCGAG	-0.139
CTAACAGA	0.0721
GGCGCTCA	-0.175
AGAGCATC	-0.0328
GGCGGCGA	0.0217
GTACAATA	0.0857
TACGGCGA	0.0961
CCTATAAC	0.00269
CCGAGTAC	-0.0417
CAGACCTC	-0.244

Sequence	PBM E-score
ACTCCCTG	-0.173
GGGGGCAA	-0.211
ATATATCG	0.119
AAGTCGTA	0.0802
AGTCAACA	0.13
CAGGGCAA	-0.137
AAAAGTCT	0.102
AACGTAAC	0.105
CATCAAGA	0.0927
TGAATACA	0.241
AGCGACAG	-0.133
AGCATGGA	-0.262
CAAAATAG	0.0437
GAGTGGAA	0.0974
AGGGCCAA	-0.327
GCTATGAC	-0.0446
AGCCAATC	-0.0438
ACGTCAGC	-0.226
CCGTCACG	-0.0407
TCCGAGCA	0.307
GAAGGCAA	-0.0791
AAGATATG	0.167
ACCTAGCA	-0.0328
CCAAAGGC	-0.187
CGTAGTAA	0.0634

Sequence	PBM E-score
ACAGACGA	-0.0205
AATGCGAT	-0.0455
AATCCAGG	-0.127
CACGTGAG	-0.203
CCGCAAAG	0.0675
GCCCGATA	-0.259
ACGGTTTC	0.0519
ACGTCTCA	-0.0462
GCACATAC	-0.243
CTGGTCGA	-0.278
AATTCGAA	0.116
GATAGTTA	0.246
CATGGATC	-0.0378
AGTATGCC	-0.0524
CTAGCTCA	-0.118
AGGAGCAA	-0.0128
AGAATTCC	0.199
AAACATCA	0.0937
AGGTAGGG	0.0341
AGACGTTA	-0.139
GACCTTGA	-0.0154
ACACTTGG	-0.0242
GGTGCCAA	-0.0457
ACTTCGAG	0.059
ATCGGCTC	0.014

Sequence	PBM E-score
AAGGATGA	-0.0311
CATGCACG	-0.0529
CACTATTC	0.116
CTGGACCA	-0.15
AAGAGATG	-0.135
AAGTTCGG	0.248
TGTCAGAA	-0.0161
ATGCAACC	0.0784
ACGTTGAA	0.0568
GCTACAAA	0.121
ATCGACCA	-0.193
CGAGAATC	0.0357
ACACAATC	0.129
GGATTAAC	-0.0263
CCCGCCTA	-0.00775
CGTCTAGC	-0.0314
AATAAGAC	0.041
AAGCCCGA	0.194
ATGATATC	0.0323
